Source: patent US20250057158A1 (priority 2021, published 2025)

Test system: cucumber bacterial leaf blight (Pseudomonas syringae pv. lachrymans)
Conditions: treatment 7 days and 1 day before pathogen; for disease severity (score 0 to 5), cucumber bacterial leaf blight: 7 days after pathogen, water control group 4.4; for control value, cucumber bacterial leaf blight: from disease severity; for control value, cucumber bacterial leaf blight / growth inhibition of cucumber: vs untreated group

| SMILES | disease severity (score 0 to 5), cucumber bacterial leaf blight | control value, cucumber bacterial leaf blight | growth inhibition of cucumber |
| --- | --- | --- | --- |
| CC[C@H](C)[C@H](N)C(=O)O [isoleucine] | 3.6 | 18% | no growth inhibition phenomenon was observed |
| CSC(=O)c1cccc2nnsc12 [BTH, benzo(1,2,3)-thiadiazole-7-carbothioic acid S-methyl ester, reference compound] |  |  | growth were inhibited |
| CC(C)[C@H](N)C(=O)O [valine] | 2.7 | 39% | no growth inhibition phenomenon was observed |
